Measurements as given in PubChem BioAssay AID1508623 (National Center for Advancing Translational Sciences (NCATS), 2021).
The campaign covered roughly 48,000 compounds. About 450 (0.94%) were called active. Inconclusive means that the source gave no clear call. Such entries were picked first, then a sample of the others. Calls follow the shape of the dose curve; as a rule, active = well fitted inhibition curve with a large enough effect; inconclusive = small, poorly fitted or top-dose-only effect; inactive = no such curve, though single readings can be large or run the other way. Potencies beside an inconclusive call are fits to weak or partial responses and may not hold up.
Potency is read from the fitted curve at half-maximal effect; tags tell the direction and shape of the fitted curve.

Assay: Primary qHTS for Identification of Small Molecule Inhibitors of Huntingtin Promoter Activity; also: nearly all actives have a fitted effect of over 50% in size
Settings: HEK293 HTT promoter firefly luciferase reporter (activity 0% = vehicle and -100% = no light), 24 h; activity change, negative = inhibition: at 57.5 µM (top of the series)
Summary of the method: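 HEK293 cells carrying firefly luciferase reporters were seeded at 2,500 per well in Opti-MEM and cultured for 24 h. They were then treated with compounds at up to 57.5 uM final for 24 h at 37 degrees C before Dual-Glo luminescence readout.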
With CCOc1ccc(-c2noc(CSc3nnc(-c4ccccc4)n3-c3ccccc3)n2)cc1 the Potency was inconclusive: 31.6 µM [inhibitor, single point].
With CN1C(=O)c2ccccc2Sc2ccc(NC(=O)Cc3c(F)cccc3Cl)cc21 the Potency was inconclusive: 20 µM [inhibitor, single point].
With COc1cccc(CNC(=O)CN2N=C(c3ccc(C)cc3)CCC2=O)c1 the “activity change, negative = inhibition” value was inactive: 2.65%.
For Cc1ccc(N(C)S(=O)(=O)c2ccc3c(c2)C(C)(C)C(=O)N3C)cc1C, the Potency was inconclusive: 10 µM [inhibitor, partial curve, poor fit].
With CCC(=O)NC[C@H](Cc1ccc(OCCc2nc(-c3ccccc3)oc2C)cc1)NC(C)=CC(=O)c1ccc(C(F)(F)F)cc1 the “activity change, negative = inhibition” value was inactive: -1.43%.
For COc1ccc(NC(=O)Cc2csc(COc3cccc(C)c3)n2)cc1OC, the Potency was inconclusive: 22.4 µM [inhibitor, partial curve, poor fit].
With Cc1ccc(C)c(S(=O)(=O)c2nnn3c2nc(NCc2cccs2)c2sccc23)c1 the Potency was inconclusive: 39.8 µM [inhibitor, single point].
With CCc1ccc(-n2c(SCC(=O)NC(C)CC)nc3n[nH]c(C)c3c2=N)cc1 (configuration not stated) the Potency was inconclusive: 35.5 µM [inhibitor, single point].
For Cc1ccc(-c2nc(S(=O)(=O)c3ccc(Cl)cc3)c(N3CCCCC3)o2)cc1, the Potency was inconclusive: 14.1 µM [inhibitor, partial curve, poor fit].
In the case of Cc1cc2n(n1)CCCN2C(=O)Nc1ccc(Cl)cc1, the “activity change, negative = inhibition” value is reported as inactive: 23.4%.
For COc1cccc(NC(=O)CN(Cc2ccccc2)S(=O)(=O)c2ccc3nc(C)sc3c2)c1, the Potency was inconclusive: 39.8 µM [inhibitor, single point].
For CCOc1ccc(CNCc2c(C(=O)O)c(C)n(Cc3ccc(F)cc3Cl)c2C)cc1, the Potency was inconclusive: 12.6 µM [inhibitor, partial curve, poor fit].
In the case of CCOC(=O)c1c(S(=O)(=O)NCC(=O)Nc2ccc(Cl)c(C(F)(F)F)c2)c(C)n(C)c1C, the Potency is reported as inconclusive: 22.4 µM [inhibitor, single point].
In the case of CCCCc1nn2c(=O)cc(COC(=O)c3cccc(NC(=O)c4cccc(C)c4)c3)nc2s1, the Potency is reported as inconclusive: 39.8 µM [inhibitor, single point].
In the case of Cc1ccc(CN2CCCn3nc(C(=O)NCc4ccccc4Cl)cc3C2=O)cc1, the Potency is reported as inconclusive: 31.6 µM [inhibitor, partial curve, poor fit].
In the case of COc1cc(NS(=O)(=O)c2ccc(N)cc2)nc(C)n1, the “activity change, negative = inhibition” value is reported as inactive: 4.55%.
In the case of CCOC(=O)c1scc(-c2ccc(C)cc2)c1S(=O)(=O)Nc1cccc(CC)c1, the Potency is reported as inconclusive: 28.2 µM [inhibitor, partial curve, poor fit].
